In article PMC8892012:
Results are given in words; binding and its absence hold for the method and conditions named. In cells and extracts the contact can be indirect. Some results given as binding are weak or reduced against the parent protein; the word gives no strength.

Protein sequences, listed by entry. Tags and fused reporters are not part of them. Lines headed by an entry give the natural chain unless they say otherwise; changes in a name come on top. Chains listed by the source or under a name are the forms on record and can include a tag or linker.
UniProt Q9HC97: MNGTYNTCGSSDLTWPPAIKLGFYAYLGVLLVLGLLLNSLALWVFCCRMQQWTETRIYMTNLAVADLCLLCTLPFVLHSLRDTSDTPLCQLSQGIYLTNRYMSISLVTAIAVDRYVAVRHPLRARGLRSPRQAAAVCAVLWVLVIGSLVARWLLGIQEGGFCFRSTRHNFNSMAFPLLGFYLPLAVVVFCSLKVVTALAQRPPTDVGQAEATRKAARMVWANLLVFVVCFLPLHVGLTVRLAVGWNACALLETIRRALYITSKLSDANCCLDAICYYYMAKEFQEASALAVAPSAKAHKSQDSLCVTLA
hGPR35a-eYFP Ser300Ala/Ser303Ala (Q9HC97, form named): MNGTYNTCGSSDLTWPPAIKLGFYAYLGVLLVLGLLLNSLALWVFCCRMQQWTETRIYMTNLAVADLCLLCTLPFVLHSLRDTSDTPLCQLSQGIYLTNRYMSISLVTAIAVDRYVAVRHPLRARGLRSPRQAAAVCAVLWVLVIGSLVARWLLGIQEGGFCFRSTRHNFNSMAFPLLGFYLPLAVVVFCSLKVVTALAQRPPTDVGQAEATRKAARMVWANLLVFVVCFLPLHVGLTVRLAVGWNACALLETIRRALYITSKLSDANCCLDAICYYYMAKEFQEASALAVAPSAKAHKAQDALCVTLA
hGPR35a-eYFP Ser300Ala (Q9HC97, form named): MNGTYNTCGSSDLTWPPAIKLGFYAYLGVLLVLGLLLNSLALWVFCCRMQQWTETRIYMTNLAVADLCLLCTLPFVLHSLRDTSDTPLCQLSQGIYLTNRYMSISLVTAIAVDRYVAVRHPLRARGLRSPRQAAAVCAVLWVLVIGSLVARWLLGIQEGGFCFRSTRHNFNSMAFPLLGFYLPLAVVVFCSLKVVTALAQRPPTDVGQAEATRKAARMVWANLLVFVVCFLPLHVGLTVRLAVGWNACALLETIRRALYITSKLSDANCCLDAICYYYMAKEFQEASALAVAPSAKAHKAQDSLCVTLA
hGPR35a-eYFP Ser303Ala (Q9HC97, form named): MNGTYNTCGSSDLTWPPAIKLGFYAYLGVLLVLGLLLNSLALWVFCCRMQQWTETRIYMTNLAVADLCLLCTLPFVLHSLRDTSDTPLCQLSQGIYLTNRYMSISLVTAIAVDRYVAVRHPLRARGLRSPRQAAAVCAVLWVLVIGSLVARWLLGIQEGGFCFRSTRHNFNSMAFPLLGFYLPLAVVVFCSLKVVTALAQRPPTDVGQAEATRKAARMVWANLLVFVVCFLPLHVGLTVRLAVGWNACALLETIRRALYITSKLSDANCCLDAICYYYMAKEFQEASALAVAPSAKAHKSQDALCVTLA
hGPR35a-PDM-eYFP (Q9HC97, form named): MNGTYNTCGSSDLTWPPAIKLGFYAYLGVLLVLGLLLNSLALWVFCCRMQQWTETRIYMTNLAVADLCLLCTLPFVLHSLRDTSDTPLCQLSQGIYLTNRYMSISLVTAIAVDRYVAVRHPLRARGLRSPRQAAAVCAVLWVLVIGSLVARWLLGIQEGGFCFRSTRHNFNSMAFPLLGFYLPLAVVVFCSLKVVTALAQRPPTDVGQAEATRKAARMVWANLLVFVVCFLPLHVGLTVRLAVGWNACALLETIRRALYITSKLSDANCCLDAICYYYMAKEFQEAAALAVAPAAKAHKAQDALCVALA
hGPR35a-eYFP Ser287Ala (Q9HC97, form named): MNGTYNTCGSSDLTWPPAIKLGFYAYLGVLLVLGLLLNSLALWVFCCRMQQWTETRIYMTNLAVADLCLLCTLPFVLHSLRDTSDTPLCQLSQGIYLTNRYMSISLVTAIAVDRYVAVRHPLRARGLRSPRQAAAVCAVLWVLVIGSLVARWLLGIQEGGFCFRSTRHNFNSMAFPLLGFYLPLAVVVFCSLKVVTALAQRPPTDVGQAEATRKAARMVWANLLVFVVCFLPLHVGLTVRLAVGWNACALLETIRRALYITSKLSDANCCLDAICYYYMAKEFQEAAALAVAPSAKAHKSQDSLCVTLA
hGPR35a-eYFP Thr307Ala (Q9HC97, form named): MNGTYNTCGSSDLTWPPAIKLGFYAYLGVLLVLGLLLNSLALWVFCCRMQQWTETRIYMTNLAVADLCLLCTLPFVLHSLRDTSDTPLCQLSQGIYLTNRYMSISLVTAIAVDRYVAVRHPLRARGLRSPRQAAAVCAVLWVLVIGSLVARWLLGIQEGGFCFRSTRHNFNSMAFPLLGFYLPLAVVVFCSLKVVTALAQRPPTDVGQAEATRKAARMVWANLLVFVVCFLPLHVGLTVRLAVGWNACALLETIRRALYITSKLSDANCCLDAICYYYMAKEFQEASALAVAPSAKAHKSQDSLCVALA
hGPR35a-eYFP Ser303Ala/Thr307Ala (Q9HC97, form named): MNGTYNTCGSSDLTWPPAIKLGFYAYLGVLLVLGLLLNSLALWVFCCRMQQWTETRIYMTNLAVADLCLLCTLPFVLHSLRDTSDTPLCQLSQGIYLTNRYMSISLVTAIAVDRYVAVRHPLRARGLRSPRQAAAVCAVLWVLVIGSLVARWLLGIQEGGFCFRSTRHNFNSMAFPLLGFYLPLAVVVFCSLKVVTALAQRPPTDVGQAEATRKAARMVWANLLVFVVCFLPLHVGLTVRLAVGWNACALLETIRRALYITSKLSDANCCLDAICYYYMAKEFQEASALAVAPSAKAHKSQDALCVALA
hGPR35a-eYFP Ser294Ala (Q9HC97, form named): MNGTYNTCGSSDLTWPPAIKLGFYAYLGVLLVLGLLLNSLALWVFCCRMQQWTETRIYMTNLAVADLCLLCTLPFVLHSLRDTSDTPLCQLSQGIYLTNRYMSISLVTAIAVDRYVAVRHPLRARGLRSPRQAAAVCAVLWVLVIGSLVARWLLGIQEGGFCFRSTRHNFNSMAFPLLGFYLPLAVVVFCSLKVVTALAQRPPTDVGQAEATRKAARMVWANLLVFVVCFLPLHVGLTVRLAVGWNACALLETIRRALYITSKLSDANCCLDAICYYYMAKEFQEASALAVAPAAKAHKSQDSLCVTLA
UniProt Q9ES90: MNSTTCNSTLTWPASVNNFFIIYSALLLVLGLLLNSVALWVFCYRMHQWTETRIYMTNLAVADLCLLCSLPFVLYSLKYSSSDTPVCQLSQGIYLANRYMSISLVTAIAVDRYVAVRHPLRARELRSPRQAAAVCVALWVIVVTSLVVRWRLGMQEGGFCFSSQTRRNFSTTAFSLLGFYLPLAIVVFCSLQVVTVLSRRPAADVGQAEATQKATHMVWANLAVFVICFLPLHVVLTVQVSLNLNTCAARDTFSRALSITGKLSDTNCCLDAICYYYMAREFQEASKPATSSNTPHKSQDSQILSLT
mGPR35-eYFP mutant C (Ser298 and Ser301 to alanine) (Q9ES90, form named): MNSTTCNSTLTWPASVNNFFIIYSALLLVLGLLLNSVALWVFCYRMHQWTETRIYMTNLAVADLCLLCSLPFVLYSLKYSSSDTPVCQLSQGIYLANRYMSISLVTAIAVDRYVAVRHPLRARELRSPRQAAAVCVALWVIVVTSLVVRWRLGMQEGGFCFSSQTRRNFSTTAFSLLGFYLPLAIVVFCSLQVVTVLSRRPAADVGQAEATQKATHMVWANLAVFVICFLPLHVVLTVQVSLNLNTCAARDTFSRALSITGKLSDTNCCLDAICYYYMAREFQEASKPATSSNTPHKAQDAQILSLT

How the values were obtained:
Assay in all cases: FRET or BRET; HEK293T cells transiently co-transfected with FLAG-GPR35-eYFP (WT or mutant) and arrestin-3-RLuc in a 4:1 ratio; HBSS, 37 °C; coelenterazine-h 5 μM; agonist (zaprinast; for hGPR35a also pamoic acid) for 5 min; net BRET = 535 nm/475 nm minus the ratio of cells with arrestin-3-RLuc only
[1] = target: FLAG-hGPR35a-eYFP (human) (UniProt Q9HC97)
[2] = target: hGPR35a-eYFP Ser300Ala/Ser303Ala (human) (UniProt Q9HC97)
[3] = target: hGPR35a-eYFP Ser300Ala (human) (UniProt Q9HC97)
[4] = target: hGPR35a-eYFP Ser303Ala (human) (UniProt Q9HC97)
hGPR35a-PDM-eYFP (human) = hGPR35a-PDM-eYFP (human) (UniProt Q9HC97)
[5] = target: hGPR35a-eYFP Ser287Ala (human) (UniProt Q9HC97)
[6] = target: hGPR35a-eYFP Thr307Ala (human) (UniProt Q9HC97)
FLAG-mGPR35-eYFP (mouse) = FLAG-mGPR35-eYFP (mouse) (UniProt Q9ES90)
[7] = target: hGPR35a-eYFP Ser303Ala/Thr307Ala (human) (UniProt Q9HC97)
[8] = target: hGPR35a-eYFP Ser294Ala (human) (UniProt Q9HC97)
[9] = target: mGPR35-eYFP mutant C (Ser298 and Ser301 to alanine) (mouse) (UniProt Q9ES90)

Measured: binding

arrestin-3 fused to Renilla luciferase (from UniProt P32121 1-409)
no binding: hGPR35a-PDM-eYFP (human) | [9]
binds weakly: [2] | [7]
binds: all other assays above
